One molecule from article PMC12808100, “The non-catalytic DNA polymerase ε subunit is an NPF motif recognition protein” (Nature Communications, 2025) can be followed below.

For the assay, the system named is POLE2 D284G. The assay can be described thus: Proximity labeling MS, POLE2 D284G. The following applies: bait POLE2_D284G.

B1: ABT1 (protein, UniProt Q9ULW3 1-272, looked up)
Activator of basal …: MEAEESEKAATEQEPLEGTEQTLDAEEEQEESEEAACGSKKRVVPGIVYLGHIPPRFRPLHVRNLLSAYGEVGRVFFQAEDRFVRRKKKAAAAAGGKKRSYTKDYTEGWVEFRDKRIAKRVAASLHNTPMGARRRSPFRYDLWNLKYLHRFTWSHLSEHLAFERQVRRQRLRAEVAQAKRETDFYLQSVERGQRFLAADGDPARPDGSWTFAQRPTEQELRARKAARPGGRERARLATAQDKARSNKGLLARIFGAPPPSESMEGPSLVRDS
Turning to B1, the AvgSpec (mean of 3 replicates) is given as 10.67. Further, the Spec reads like this: (replicate 1) 11; (replicate 2) 7; (replicate 3) 14. Further, the SpecSum (sum of 3 replicates) was 32. This molecule also came in with a FoldChange (versus control counts) of 8.8.
